Four molecules from PubChem BioAssay AID1963854 (Molecular Pharmacology Branch, DTP, NCI, 2024) can be followed below.

For the experiment, the system named is 186277-243-T-J2-PDC complex spheroid viability. Kind of experiment: Anticancer human tumor 186277-243-T-J2-PDC patient-derived colon adenocarcinoma cell line growth inhibition [POLQ]. Particulars: stronger effect = lower value. As to the method: Multicellular complex tumor spheroid response to Polymerase (POL) inhibitors (novobiocin, ART-558, RP6685) in combination with a variety of drugs and investigational agents in selected tumor cell lines
The POL inhibitors (novobiocin, ART-558, and RP6685) were evaluated both individually and in combination with standard of care and investigational anticancer small molecules within a complex spheroid model of solid tumors. . Complex spheroids include a stromal component modeled by human endothelial cells (HUVEC) and fibroblasts modeled by human mesenchymal stem cells (MSCs). The concentration ranges selected for each drug and investigational agent were based upon clinically achievable concentrations if the clinical Cmax of the agent was known.
Compounds. The drugs and investigational agents: novobiocin (NSC847541), ART-558 (NSC835418), RP-6685 (NSC848927), peposertib (NSC802822), ceralasertib (NSC780249), elimusertib (NSC800525), camonsertib (NSC841442), AZD-1390 (NSC803789), olaparib (NSC753686), talazoparib (NSC767125), rucaparib (NSC756644), sotorasib (NSC818433), MRTX-1133 (NSC836407), SN-38 (NSC673596), topotecan (NSC609699), epotoside (NSC141540), doxorubicin (NSC123127), gemcitabine (NSC613327), 5-fluorouracil (NSC19893), paclitaxel (NSC125973), vemurafenib (NSC761431), MSA-2 (NSC828583), SN-011 (NSC837082), adavosertib (NSC754352), prexasertib (NSC758257), carboplatin (NSC241240) and oxaliplatin (NSC266046), were obtained from the National Cancer Institute (NCI) Developmental Therapeutics Program Chemical Repository (21). The FDA-approved anticancer drug set is available from the Developmental Therapeutics Program at https://dtp.cancer.gov/organization/dscb/obtaining/. […] The stock solutions were prepared in dimethyl sulfoxide (DMSO, Sigma-Aldrich, St. Louis, MO, cat. D2650), except for the platinum compounds which were prepared in saline (Quality Biological, Gaithersburg, MD, cat. 114-055-101), at 800-fold the tested concentration and stored at -70 degrees C prior to their use. All drugs and investigational agents were tested over a range starting from a high concentration at or near the clinical Cmax and decreasing in half-log increments. If the clinical Cmax for an agent had not been determined, the highest concentration tested was 10 microM, except for SN-38, which was tested at a high concentration of 1 microM.
Cell Culture. All cells were maintained in an incubator at 37 degrees C and 5% CO2 with 95% humidity. The PDC lines were cultured according to standard operating procedures established by the NCI PDMR (https://pdmr.cancer.gov). Table 3 of the manuscript, lists the cell lines along with the number of the three cell types plated to form the mct-spheroids and media for tumor cell growth. […]

A number of entries come with more than one value. This list holds those alone. An entry can have further records. The records of an entry are repeats in other runs, samples, wells, individuals or studies. Signs of the kind (2×) count equal records among those shown. Dates in brackets are months of testing.
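Further: spheroids exposed to compounds for seven days; 100% = DMSO vehicle control viability.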

For `COc1cccc2c1C(=O)c1c(O)c3c(c(O)c1C2=O)CC(O)(C(=O)CO)CC3OC1CC(N)C(O)C(C)O1` (centres undefined), for the setting “compound alone 0.316 µM”, the viability, T/C was 8.92%, 10.6% [2023-10] and 37.5% [2023-11].

Regarding `COc1cccc(OCCCN)c1-c1cc(Nc2cnc(C#N)cn2)n[nH]1`, the viability, T/C (compound alone 0.00316 µM) was 7.29% [2023-10] and 35.3%, 42.5% [2023-11].

In the case of `COC1C(OC(N)=O)C(O)C(Oc2ccc3c(O)c(NC(=O)c4ccc(O)c(CC=C(C)C)c4)c(=O)oc3c2C)OC1(C)C` (centres undefined), the viability, T/C (compound alone 1 µM) was 103 (3×), 93.3, 91.3, 94, 100, 108, 118, 106, 102, 90.6, 98.2%.

As for `Nc1ccc(C#CCN(C(=O)Cc2ncc(C(F)(F)F)cc2C(F)(F)F)c2ccc(F)cc2)nn1`, the viability, T/C (compound alone 10 µM) is reported as 85, 94.5, 83.9, 88.9, 113, 98.9, 88.5, 86.3, 86.8, 81.2, 87.2, 79.1, 84.8%.
